In the supplement of paper PMC7125110:
± gives the standard error. This sample is rich in variants without activity.

B1: glmS ribozyme (parent)
chain: AUAAAAGCGCCAGAACUACAGAAAUGUAGUUGACGAGGAGGAGGUUUAUCGAAUUUUCGGCGGAUGCCUCCAAA

Assays:
Conditions in all cases: with glucosamine-6-phosphate
[1] = variants of: B1; experiment: self-cleavage kobs at 640 uM GlcN6P; higher = faster cleavage; RNA array
How it was run: (§1)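 In situ transcription by E. coli RNA polymerase produced barcoded ribozyme variants on sequenced MiSeq chips, and a hybridised Cy3 probe tracked them at 37 °C. Glucosamine-6-phosphate was flowed in at 40 μM to 10 mM in HEPES/KCl/Mg(OAc)2 buffer. kcat and KM were taken from weighted Michaelis–Menten fits of kobs values from exponential decay fits.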

[2] = variants of: B1; experiment: self-cleavage kobs at 2500 uM GlcN6P; higher = faster cleavage; RNA array
How it was run: as §1

[3] = variants of: B1; experiment: self-cleavage kobs at 10000 uM GlcN6P; higher = faster cleavage; RNA array
How it was run: as §1

[4] = variants of: B1; experiment: self-cleavage kobs at 160 uM GlcN6P; higher = faster cleavage; RNA array
How it was run: as §1

Variant	self-cleavage kobs at 640 uM GlcN6P [1] [s⁻¹]	self-cleavage kobs at 2500 uM GlcN6P [2] [s⁻¹]	self-cleavage kobs at 10000 uM GlcN6P [3] [s⁻¹]	self-cleavage kobs at 160 uM GlcN6P [4] [s⁻¹]
C11A G59A C61G C70A	0.000163 ± 7.6e-05			
C11A U30A U45G	< 1e-05			
C11A U56A	3.27e-05 ± 1e-05	7.89e-05 ± 1.5e-05	0.000118 ± 1.3e-05	
C11G A12U G41U A53G C67G	< 1e-05			
C11G A33C G40A	< 1e-05			
C11G A36C G44U G51A G62U	< 1e-05	< 1e-05		
C11G A39C A64U	< 1e-05			< 1e-05
C11G A39G A53G U55C A64U	< 1e-05			
C11G C16A C34G A42U	< 1e-05			< 1e-05
C11G C34U	< 1e-05	< 1e-05		< 1e-05
C11G C34U A36U U55A C67A	< 1e-05			
C11G G13A A39U	< 1e-05			
C11G G13C	< 1e-05	< 1e-05	< 1e-05	
C11G G29C G32C	< 1e-05	< 1e-05		< 1e-05
C11G G35A C50U G59U	< 1e-05			
C11G G35C A48U U65G	< 1e-05			
C11G G41A U56G	< 1e-05	< 1e-05		
C11G G44A U49C C50A A64G G66A	< 1e-05			
C11G U31C U54A	< 1e-05	< 1e-05		
C11G U31G G41U U69C	< 1e-05	< 1e-05		
C11U A14U G44A	< 1e-05	< 1e-05		< 1e-05

Variant	self-cleavage kobs at 640 uM GlcN6P [1] [s⁻¹]	self-cleavage kobs at 2500 uM GlcN6P [2] [s⁻¹]	self-cleavage kobs at 10000 uM GlcN6P [3] [s⁻¹]	self-cleavage kobs at 160 uM GlcN6P [4] [s⁻¹]
C11U A48G	< 1e-05		< 1e-05	< 1e-05
C11U C34G	< 1e-05	< 1e-05	< 1e-05	
C11U C50U G60C	< 1e-05			
C11U G29A A33C	< 1e-05	< 1e-05		
C11U G29U G32C G44U U46G G66U	< 1e-05	< 1e-05		
C11U G29U G40A	< 1e-05		5.39e-05 ± 1.7e-05	< 1e-05
C11U G29U U54A	0.000113 ± 2.1e-05	0.000171 ± 4.4e-05	0.000577 ± 0.00014	
C11U G37A C58G	< 1e-05			< 1e-05
C11U G37C C50A G63A	< 1e-05			
C11U G38A A42C	< 1e-05	< 1e-05		
C11U G40C G44A U57C	< 1e-05			
C11U G41C U54G G59C	< 1e-05			
C11U G59A G62U G63U	< 1e-05			
C11U U30C U31G C34A U49C	< 1e-05	< 1e-05		
C11U U31A A48U U54G G63U	< 1e-05	< 1e-05		< 1e-05
C11U U31A G35C	< 1e-05			
C11U U31C	0.000179 ± 2.3e-05	0.000364 ± 5.9e-05	0.000465 ± 5.5e-05	2.97e-05 ± 1.5e-05
C11U U55G C70A	8.31e-05 ± 3.3e-05			
C11U U65A C71U	2.73e-05 ± 1.3e-05	8.15e-05 ± 1.6e-05	0.000139 ± 4.3e-05	
A12C A15G C16G G51U	< 1e-05			
A12C C34G G66C	< 1e-05			

Variant	self-cleavage kobs at 640 uM GlcN6P [1] [s⁻¹]	self-cleavage kobs at 2500 uM GlcN6P [2] [s⁻¹]	self-cleavage kobs at 10000 uM GlcN6P [3] [s⁻¹]	self-cleavage kobs at 160 uM GlcN6P [4] [s⁻¹]
A12C G29C A42U G51A C58G C68U	< 1e-05			
A12C G32U G63U C71G	< 1e-05	< 1e-05		
A12C G35A C70U	< 1e-05	< 1e-05		
A12C G35U G41U	< 1e-05			< 1e-05
A12C U31C G41C A64C	< 1e-05	< 1e-05		< 1e-05
A12C U45G U49G G66C	< 1e-05			< 1e-05
A12C U54C C71U	0.00422 ± 0.0017	0.0234 ± 0.0081		
A12G G13U G41U U57G	< 1e-05			
A12G G29A G37U U56A	< 1e-05			
A12G G29C A33C	< 1e-05	< 1e-05		
A12G G35U G37A	< 1e-05			
A12G G37A C50A	< 1e-05		< 1e-05	
A12G G38U U65C	< 1e-05			< 1e-05
A12G G41U G51C C71A	< 1e-05	< 1e-05		< 1e-05
A12G G43A U46G U55A C61G	< 1e-05			
A12G U30A G37U A64C	< 1e-05	< 1e-05		
A12G U31C G37A C70A	< 1e-05			
A12U A15G G41A	0.00098 ± 0.00018			0.000272 ± 4.5e-05
A12U A15G G41A C61A	< 1e-05			
A12U A33G G35C G44C A53G	< 1e-05			
A12U A48C C58A	< 1e-05	< 1e-05		
